# Assay results published in the supplement of paper PMC3334620.
# The full ranking holds about 33,000 sequences; the median of “E-score (-0.5 to 0.5)” is about -0.036, and the highest 2% start at about 0.37. This is one part of the list.
# Target: T1, Yer064c (UniProt P40041)
# T1 sequence: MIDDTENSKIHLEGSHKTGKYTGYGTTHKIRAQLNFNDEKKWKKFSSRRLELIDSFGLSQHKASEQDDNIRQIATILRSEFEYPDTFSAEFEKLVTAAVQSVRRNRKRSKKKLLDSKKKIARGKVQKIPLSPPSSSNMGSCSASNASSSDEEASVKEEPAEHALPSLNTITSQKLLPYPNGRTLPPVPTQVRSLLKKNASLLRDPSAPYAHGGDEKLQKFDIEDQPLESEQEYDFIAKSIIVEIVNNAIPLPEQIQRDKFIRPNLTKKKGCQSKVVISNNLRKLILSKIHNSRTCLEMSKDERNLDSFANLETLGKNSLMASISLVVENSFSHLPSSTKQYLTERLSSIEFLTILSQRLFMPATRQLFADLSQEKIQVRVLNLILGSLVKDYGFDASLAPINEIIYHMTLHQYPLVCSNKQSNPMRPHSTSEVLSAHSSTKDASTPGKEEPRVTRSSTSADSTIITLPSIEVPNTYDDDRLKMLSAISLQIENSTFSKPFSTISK
# Assay: PBM E-score (8-mer binding enrichment) (E-score (-0.5 to 0.5)); higher = stronger / more preferred TF binding; most listed sequences are background and not binding sites
# Details: protein concentration: 200 nM; construct: GST-full length
# In short: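 The E-score, a modified Wilcoxon-Mann-Whitney statistic, was computed by the Universal PBM Analysis Suite for every ungapped eight-base word pooled with its reverse complement. Scans behind it were normalised with masliner after bound GST-tagged yeast transcription factors were detected with fluorescent anti-GST. The proteins, at about 100-200 nM, had been applied to universal all-10-mer Agilent arrays made double-stranded by primer extension.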
row,Sequence,PBM E-score
1,ACTTCACG,0.015
2,ACTTTAGA,0.118
3,AAACACCG,-0.105
4,ACGATAGC,-0.117
5,AGCGACGC,-0.273
6,ACGCATTC,-0.0249
7,CACAGATA,-0.0649
8,CTTAATTC,0.0121
9,GGATCACC,-0.126
10,GACAGCGA,-0.0725
11,GGAATCCC,-0.166
12,ACCTATTG,-0.151
13,GTACGACA,0.0153
14,GGTTATTA,0.0159
15,ATCACCCA,0.135
16,AGCACCCG,-0.167
17,GCGGCTCC,-0.332
18,CGCTTAGC,-0.157
19,ACGAATAT,-0.203
20,CCGTGGCA,-0.141
21,AGGTAAAC,-0.0177
22,AGCTCTAT,-0.089

row,Sequence,PBM E-score
1,CATATCCG,-0.0624
2,GAATCCAC,0.0482
3,CGTGCAAG,-0.0837
4,CAACGTGC,-0.137
5,CTCCGTCC,-0.256
6,AGCACCAT,-0.322
7,ATATAGCG,-0.253
8,GTGGAAAC,-0.0987
9,ACAGGTCT,-0.0459
10,CATAAACA,0.00551
11,GAGTACAC,0.318
12,CTAGGTTA,0.0169
13,CGTTTAGC,0.0534
14,ATTAGCGG,-0.138
15,AAATTGAG,0.0433
16,ATAACCGC,0.0483
17,AACCCTTG,-0.178
18,ATCAGGCG,0.126
19,AATGCACA,-0.0113
20,CATCGGAA,-0.0521
21,AGCTAATA,0.135
22,CGAATGCC,-0.306

row,Sequence,PBM E-score
1,CCTCATCG,-0.207
2,GAGGTAGA,-0.141
3,ATGCCGCG,-0.22
4,CTTTAGTC,0.416
5,GCCAGTAC,-0.00912
6,CTTAAACA,0.268
7,CTAGGGGC,-0.216
8,CTAGACTA,0.17
9,GACTGGAC,0.138
10,ACTACTGG,0.177
11,ATCGAGGG,-0.268
12,CGCAACCC,-0.0826
13,CTGTCAGC,-0.18
14,ACAAATCC,-0.0439
15,CCGTAAGC,-0.145
16,AACACGGG,-0.204
17,GGGTCATA,0.125
18,GTGGTCGA,-0.157
19,AGATCCTA,-0.0884
20,CCTCGCCA,-0.303
21,GGCGGCTA,0.0443
22,AGACGCAC,-0.218

row,Sequence,PBM E-score
1,CCACGTGG,-0.261
2,TTCGAGAA,0.0366
3,ACCCACGC,0.114
4,CACCTTGA,-0.137
5,CCACGTGC,-0.111
6,GACTGGCC,0.127
7,AAGACTAC,0.413
8,GCATCAAA,0.1
9,CCCACTAC,-0.0519
10,ATAGACTA,0.316
11,ATCCAAGC,-0.146
12,AAGCAAGT,0.0544
13,CATCTACA,0.108
14,CCGAGTCG,0.261
15,AACCTGCG,-0.289
16,TAACGGCA,-0.0892
17,ACACTCAC,0.188
18,ACTCATGC,0.378
19,ACTCTTAA,0.241
20,CAGCCAAA,0.0544
